Experimental data from the supplement of paper PMC3334620.
In all, about 33,000 sequences were measured (“E-score (-0.5 to 0.5)”: median about -0.041, highest 2% from about 0.37 on). Some of the results follow.

Each sequence was assayed against T1, Ecm22 (UniProt Q05958) (assay: PBM E-score (8-mer binding enrichment) (E-score (-0.5 to 0.5)); higher = stronger / more preferred TF binding; most listed sequences are background and not binding sites). Details: protein concentration: 200 nM; construct: GST-full length.
T1 sequence: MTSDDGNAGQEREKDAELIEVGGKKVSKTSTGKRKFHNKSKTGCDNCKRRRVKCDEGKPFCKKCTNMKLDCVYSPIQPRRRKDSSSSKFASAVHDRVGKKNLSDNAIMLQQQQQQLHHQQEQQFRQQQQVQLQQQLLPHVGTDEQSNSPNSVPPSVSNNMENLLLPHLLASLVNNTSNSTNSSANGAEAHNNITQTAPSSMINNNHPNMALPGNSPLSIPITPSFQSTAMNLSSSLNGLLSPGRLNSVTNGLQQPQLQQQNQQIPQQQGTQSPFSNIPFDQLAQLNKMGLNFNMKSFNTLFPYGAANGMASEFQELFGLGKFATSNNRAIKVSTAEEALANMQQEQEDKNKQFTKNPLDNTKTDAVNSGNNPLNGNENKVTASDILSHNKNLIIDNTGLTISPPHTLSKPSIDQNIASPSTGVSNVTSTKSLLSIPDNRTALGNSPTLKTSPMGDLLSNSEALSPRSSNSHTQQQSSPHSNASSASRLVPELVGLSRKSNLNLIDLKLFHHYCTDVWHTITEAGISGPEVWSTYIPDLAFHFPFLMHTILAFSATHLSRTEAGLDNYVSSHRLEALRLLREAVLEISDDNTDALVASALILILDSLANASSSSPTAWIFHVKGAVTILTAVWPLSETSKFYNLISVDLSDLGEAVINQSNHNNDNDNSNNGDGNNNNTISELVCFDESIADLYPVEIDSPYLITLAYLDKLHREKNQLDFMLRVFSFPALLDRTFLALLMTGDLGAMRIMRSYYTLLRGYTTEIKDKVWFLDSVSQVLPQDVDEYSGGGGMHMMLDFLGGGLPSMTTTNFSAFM
Experimental: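 Universal 'all 10-mer' protein binding microarrays (Agilent AMADID 015681) probed with GST-tagged S. cerevisiae TFs (full-length or DBD) made by in vitro transcription/translation (PURExpress), about 100-200 nM. Bound TF was detected with fluorescent anti-GST. Each ungapped 8-mer (which stands for itself and its reverse complement) is scored by the PBM enrichment score (E-score), a modified Wilcoxon-Mann-Whitney statistic from -0.5 to +0.5, computed with the Universal PBM Analysis Suite. Scale: above 0.35 generally sequence-specific binding.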

Sequence | PBM E-score
ATACTCGG | 0.146
AGCAAACC | 0.00737
ACGGTCCC | 0.066
CGGTCACG | 0.086
GCCGGCTA | -0.308
ATCTAGTC | 0.0312
AAACTTAC | 0.027
AAAACTGT | -0.0446
CGTTATGA | -0.0262
CGTCCTCC | -0.039
AGCTAAAC | 0.195
CTGACGAA | 0.0373
AGAGTCGA | -0.0661
CCCCACCA | 0.0399
ATGGGATC | -0.12
GCACTGCA | -0.0415
GACGCTAA | -0.0642
AGTTGATA | 0.0261
AGTCACTC | -0.00586
CTGAACAG | -0.166
GACTCACA | -0.3
ACGCGAAA | 0.224
CTCGATCA | 0.0997
GTCTTATA | -0.00247
ACAGGGCA | -0.0982

Sequence | PBM E-score
CACCTGTC | -0.0885
AGCACTCC | -0.13
GGTATTCA | 0.0401
CAGATAAG | 0.0291
CTGGAACA | -0.167
GTCCCGCA | -0.192
GCGCTGCA | -0.0611
CCCGCTGC | -0.205
CGCGCTGC | -0.171
CGCGTGTC | 0.169
TATGGGCA | -0.0891
TGTTTAAA | -0.172
GCGGCCCC | -0.146
AGGTCAGG | -0.313
ATCTGGAC | -0.199
GGATTTCA | -0.0584
ATTTTAGC | -0.0648
ATTAGGTG | -0.085
ACAGCTAA | -0.195
GAAAAGCC | -0.164
ATCATACA | 0.0909
ATCATTAG | 0.0862
GAACAAGC | 0.102
ACCTGGTA | -0.029
CTTGGTCA | -0.13

Sequence | PBM E-score
GCACGCTA | -0.0608
CGCTCATC | 0.184
GCGGAAGA | -0.0573
CAGATCGC | 0.0978
AGCGGGAG | -0.188
GGGTCACC | -0.332
ATATCCCC | -0.266
AGGGCTAC | -0.117
ATGGGTCC | -0.173
AGCAGCTC | -0.111
CCAGACCG | 0.22
CATCCACC | -0.104
GTAAGAAA | 0.135
GTGAGTCA | -0.194
ATTAGTGA | 0.0244
CATAACCA | -0.0223
AGCCTCGC | 0.153
AGCATTGG | -0.171
AACGAGTC | 0.419
AGCCCGGC | -0.0285
CCCACAGC | 0.00531
AAAGTACT | 0.0287
ATAATTAG | -0.0911
AAAGCGTC | -0.0658
TCCCATCA | -0.271

Sequence | PBM E-score
ACCATGTG | -0.0748
GTACAAAC | 0.145
GCGTGGAA | 0.0374
GGCATGTA | 0.26
TATGGTAA | 0.0507
AACCCAGG | -0.198
AGTCGGTA | 0.0735
ATTGCGAA | -0.0413
ATCATGCC | -0.237
TGGAAGAA | -0.0155
ACTCTACC | 0.0196
GGTGGTAA | -0.157
CAAAAGTG | -0.259
CGCTGTCC | 0.189
GAGACTCC | -0.135
AGGAGAGA | -0.254
GTCAAGTA | -0.123
GTCCACTA | -0.238
AGTAAAAG | 0.0736
CACTGCGC | -0.179
AAAGAGTG | -0.104
CGAAAGTC | 0.0394
ACGAGAGA | 0.353
AGCTACAA | -0.181
ATGATGGC | -0.122

Sequence | PBM E-score
CGATCCCC | 0.0996
AGCGGCCA | -0.244
AAATCACA | -0.0371
ATTCAGTC | -0.074
AAAATAGA | 0.0199
CCCGTGCC | -0.0282
GATGCTAC | 0.0998
CAGTTATC | -0.132
AGTGCTGC | -0.0275
AAAATCTA | -0.0067
CTATGAGA | -0.193
CAGGTTAA | 0.0872
AAACTCTA | -0.12
GTTTTTAA | -0.00015
AACCCATA | 0.136
AGTGACTG | -0.113
AGCTCAAC | -0.0198
GCTCCACC | -0.0804
ACCCCTCG | 0.151
ATCGCCGG | -0.0654
ACCGTCGG | 0.13
AACTCGGT | 0.235
AATGAAAT | 0.128
TCTCTGAA | -0.169
AACATTGT | 0.0926

Sequence | PBM E-score
AGTATCCC | 0.036
AAAAAGAA | -0.0275
GCTCTACC | -0.0817
ACATGATG | -0.161
ATAGAATC | -0.045
AATTACGG | 0.109
GCGGTAGA | -0.103
CGCATACA | 0.111
TATACAGA | 0.16
ACTCTTAT | -0.0446
CGCGTCTC | 0.184
TCAGGACA | -0.00888
CATCGCAC | 0.164
GACCGTTA | 0.00349
ACCCACTG | -0.187
CAGTACCC | -0.0859
GGCGTTCA | 0.00425
ACCTAAAA | -0.0708
ACACTACA | 0.057
CGTGACGA | 0.104
TCCCGCAA | -0.0633
GATCACGC | 0.0133
GGAGTTGA | 0.0109
ACGGAGGC | 0.0937
TATTACCA | 0.0587

Sequence | PBM E-score
CCAGTAGG | -0.251
ACGAATAG | 0.303
CTCCTAGC | -0.239
ACTCTCCG | -0.0362
TATAGTAA | 0.124
CCCCCCTC | -0.0564
TAGTACGA | 0.443
CGAGTCGC | 0.156
AAGCGCAT | -0.0835
GACAACAC | 0.168
ACCAATTA | -0.0176
CTTCCAAC | -0.128
CGCAGTCC | 0.0278
GAGGCTTA | -0.265
GTGGCTTA | -0.0969
CGGTAGGC | -0.138
CGTAGCAA | 0.288
AGGGGAGA | -0.206
AGTGTACA | -0.0734
TTTTAAAA | -0.0353
ACACATAA | -0.00795
TCTCGGCA | 0.011
